Reference: US12578331B2, “Monolayer of PBMCs or bone-marrow cells and uses thereof” (Mobius Biotechnology GmbH, priority 2014, dated 2026)

Test system: PBMCs (CD11C, CD14, CD3, CD19 stained populations)
Details: healthy donor PBMCs, 36 hours incubation, FIG. 4

Structure (SMILES)	drug-induced cell-population specific cytotoxicity
Nc1ccn([C@@H]2O[C@H](CO)[C@@H](O)[C@@H]2O)c(=O)n1 [cytarabine]	better target macrophages and dendritic cells, and B-cells to a lesser extent
CCN(CC)Cc1ccc2cc(COC(=O)Nc3ccc(C(=O)NO)cc3)ccc2c1 [givinostat]	may not be effective for B-cell derived cancers
